From the supplement of paper PMC11741623
This is one part of the list. Interaction screen of human proteins with wild-type SARS-CoV-2 proteins by split-DHFR complementation in yeast, 1 µg/mL methotrexate. Value = fitness of the pair (three or more lineages) minus that of the viral protein without a human partner, on a scale set by negative (0) and fused positive (1) controls, mean of up to three cultures; higher = more likely to interact. Active = false discovery rate below 0.05 (one-sided t-test) in at least one culture. Nearly all pairs are not hits, and differences among them are mostly noise (correlation between cultures about 0.3); most hits were seen in one culture only. Human sequences are the Swiss-Prot entries looked up by gene name; the clone may be another isoform. NSP2 values were corrected by the authors for a growth advantage. Listed are human proteins with a hit and a random twelfth of the others.

How the values were obtained:
Test in all cases: yeast fitness gain over the viral ORF with no human partner (scaled fitness); higher = more likely to interact
SARS-CoV-2 E = molecular target: SARS-CoV-2 E
Protocol: (§1)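 Split mouse DHFR complementation in pooled diploid yeast: human ORFeome clones carry one fragment and viral ORFs the other; barcoded lineages compete in 1 µg/mL methotrexate and fitness is read by barcode sequencing in up to three cultures.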

SARS-CoV-2 M = molecular target: SARS-CoV-2 M
Protocol: as §1

SARS-CoV-2 N = molecular target: SARS-CoV-2 N
Protocol: as §1

SARS-CoV-2 NSP1 = molecular target: SARS-CoV-2 NSP1
Protocol: as §1

SARS-CoV-2 NSP10 = molecular target: SARS-CoV-2 NSP10
Protocol: as §1

SARS-CoV-2 NSP12 = molecular target: SARS-CoV-2 NSP12
Protocol: as §1

SARS-CoV-2 NSP13 = molecular target: SARS-CoV-2 NSP13
Protocol: as §1

SARS-CoV-2 NSP15 = molecular target: SARS-CoV-2 NSP15
Protocol: as §1

SARS-CoV-2 NSP16 = molecular target: SARS-CoV-2 NSP16
Protocol: as §1

SARS-CoV-2 NSP2 = molecular target: SARS-CoV-2 NSP2
Protocol: as §1

SARS-CoV-2 NSP4 = molecular target: SARS-CoV-2 NSP4
Protocol: as §1

SARS-CoV-2 NSP5 = molecular target: SARS-CoV-2 NSP5
Protocol: as §1

SARS-CoV-2 NSP6 = molecular target: SARS-CoV-2 NSP6
Protocol: as §1

SARS-CoV-2 NSP7 = molecular target: SARS-CoV-2 NSP7
Protocol: as §1

SARS-CoV-2 NSP8 = molecular target: SARS-CoV-2 NSP8
Protocol: as §1

SARS-CoV-2 NSP9 = molecular target: SARS-CoV-2 NSP9
Protocol: as §1

SARS-CoV-2 ORF10 = molecular target: SARS-CoV-2 ORF10
Protocol: as §1

SARS-CoV-2 ORF3A = molecular target: SARS-CoV-2 ORF3A
Protocol: as §1

SARS-CoV-2 ORF3B = molecular target: SARS-CoV-2 ORF3B
Protocol: as §1

SARS-CoV-2 ORF6 = molecular target: SARS-CoV-2 ORF6
Protocol: as §1

SARS-CoV-2 ORF7A = molecular target: SARS-CoV-2 ORF7A
Protocol: as §1

SARS-CoV-2 ORF7B = molecular target: SARS-CoV-2 ORF7B
Protocol: as §1

SARS-CoV-2 ORF8 = molecular target: SARS-CoV-2 ORF8
Protocol: as §1

SARS-CoV-2 ORF9B = molecular target: SARS-CoV-2 ORF9B
Protocol: as §1

[1] = molecular target: SARS-CoV-2 ORF9Bwu (the 73-codon ORF)
Protocol: as §1

SARS-CoV-2 S = molecular target: SARS-CoV-2 S
Protocol: as §1

SARS-CoV-2 NSP14 = molecular target: SARS-CoV-2 NSP14
Protocol: as §1

Measured: yeast fitness gain

B1: TGS1, Q96RS0 (protein)
chain: MCCEKWSRVAEMFLFIEEREDCKILCLCSRAFVEDRKLYNLGLKGYYIRDSGNNSGDQATEEEEGGYSCGTAESHDSKGIGLDESELDSEAELMRSMGLPLQFGRITAHKDFEVSMNTRNKVKIKKKKHQKKYLDEIVQESWRKEYEEDDILASDDPSSIEQYENTRTYELQSKKDTETENPPVENTLSPKLEITEKWEKYWNEYGGGLLWQSWQEKHPGQALSSEPWNFPDTKEEWEQHYSQLYWYYLEQFQYWEAQGWTFDASQSCDTDTYTSKTEADDKNDEKCMKVDLVSFPSSPIMVDNDSSGTSDKDHSEILDGISNIKLNSEEVTQSQLDSCTSHDGHQQLSEVSSKRECPASGQSEPRNGGTNEESNSSGNTNTDPPAEDSQKSSGANTSKDRPHASGTDGDESEEDPPEHKPSKLKRSHELDIDENPASDFDDSGSLLGFKYGSGQKYGGIPNFSHRQVRYLEKNVKLKSKYLDMRRQIKMKNKHIFFTKESEKPFFKKSKILSKVEKFLTWVNKPMDEEASQESSSHDNVHDASTSSDSEEQDMSVKKGDDLLETNNPEPEKCQSVSSAGELETENYERDSLLATVPDEQDCVTQEVPDSRQAETEAEVKKKKNKKKNKKVNGLPPEIAAVPELAKYWAQRYRLFSRFDDGIKLDREGWFSVTPEKIAEHIAGRVSQSFKCDVVVDAFCGVGGNTIQFALTGMRVIAIDIDPVKIALARNNAEVYGIADKIEFICGDFLLLASFLKADVVFLSPPWGGPDYATAETFDIRTMMSPDGFEIFRLSKKITNNIVYFLPRNADIDQVASLAGPGGQVEIEQNFLNNKLKTITAYFGDLIRRPASET
inactive: SARS-CoV-2 E 0.085 | SARS-CoV-2 M -0.0153 | SARS-CoV-2 N 0.0872 | SARS-CoV-2 NSP1 = -0.027 | SARS-CoV-2 NSP10 = -0.00258 | SARS-CoV-2 NSP12 = 0.0621 | SARS-CoV-2 NSP13 = -0.075 | SARS-CoV-2 NSP15 = 0.0486 | SARS-CoV-2 NSP16 = -0.11 | SARS-CoV-2 NSP2 = -0.154 | SARS-CoV-2 NSP4 = -0.332 | SARS-CoV-2 NSP5 = 0.0932 | SARS-CoV-2 NSP6 = 0.011 | SARS-CoV-2 NSP7 = 0.0747 | SARS-CoV-2 NSP8 = 0.00191 | SARS-CoV-2 NSP9 = -0.0226 | SARS-CoV-2 ORF10 = 0.00245 | SARS-CoV-2 ORF3A -0.152 | SARS-CoV-2 ORF3B 0.0054 | SARS-CoV-2 ORF6 = 0.00722 | SARS-CoV-2 ORF7A -0.0413 | SARS-CoV-2 ORF7B -0.0151 | SARS-CoV-2 ORF8 = 0.0251 | SARS-CoV-2 ORF9B 0.0382 | [1] -0.0156 | SARS-CoV-2 S 0.00462

B2: THEM5, Q8N1Q8 (protein)
chain: MIRRCFQVAARLGHHRGLLEAPRILPRLNPASAFGSSTDSMFSRFLPEKTDLKDYALPNASWCSDMLSLYQEFLEKTKSSGWIKLPSFKSNRDHIRGLKLPSGLAVSSDKGDCRIFTRCIQVEGQGFEYVIFFQPTQKKSVCLFQPGSYLEGPPGFAHGGSLAAMMDETFSKTAFLAGEGLFTLSLNIRFKNLIPVDSLVVMDVELDKIEDQKLYMSCIAHSRDQQTVYAKSSGVFLQLQLEEESPQ
inactive: SARS-CoV-2 E 0.0908 | SARS-CoV-2 M -0.042 | SARS-CoV-2 N 0.0583 | SARS-CoV-2 NSP1 = -0.0355 | SARS-CoV-2 NSP10 = 0.0232 | SARS-CoV-2 NSP12 = -0.101 | SARS-CoV-2 NSP13 = 0.0192 | SARS-CoV-2 NSP15 = 0.072 | SARS-CoV-2 NSP2 = -0.047 | SARS-CoV-2 NSP5 = 0.0723 | SARS-CoV-2 NSP6 = 0.0571 | SARS-CoV-2 NSP7 = 0.104 | SARS-CoV-2 NSP8 = 0.0611 | SARS-CoV-2 NSP9 = 0.0541 | SARS-CoV-2 ORF10 = -0.0609 | SARS-CoV-2 ORF3A -0.00786 | SARS-CoV-2 ORF3B -0.0222 | SARS-CoV-2 ORF6 = -0.00261 | SARS-CoV-2 ORF7A -0.0323 | SARS-CoV-2 ORF7B 0.0647 | SARS-CoV-2 ORF8 = 0.0431 | SARS-CoV-2 ORF9B -0.0511 | SARS-CoV-2 S 0.0393

B3: TMEM204, Q9BSN7 (protein)
chain: MTVQRLVAAAVLVALVSLILNNVAAFTSNWVCQTLEDGRRRSVGLWRSCWLVDRTRGGPSPGARAGQVDAHDCEALGWGSEAAGFQESRGTVKLQFDMMRACNLVATAALTAGQLTFLLGLVGLPLLSPDAPCWEEAMAAAFQLASFVLVIGLVTFYRIGPYTNLSWSCYLNIGACLLATLAAAMLIWNILHKREDCMAPRVIVISRSLTARFRRGLDNDYVESPC
inactive: SARS-CoV-2 E 0.00889 | SARS-CoV-2 M 0.00835 | SARS-CoV-2 N 0.0765 | SARS-CoV-2 NSP1 = 0.00149 | SARS-CoV-2 NSP10 = 0.0309 | SARS-CoV-2 NSP12 = 0.0499 | SARS-CoV-2 NSP13 = 0.0532 | SARS-CoV-2 NSP14 = -0.00429 | SARS-CoV-2 NSP15 = 0.0924 | SARS-CoV-2 NSP16 = 0.118 | SARS-CoV-2 NSP2 = -0.0395 | SARS-CoV-2 NSP4 = 0.047 | SARS-CoV-2 NSP5 = 0.0747 | SARS-CoV-2 NSP6 = 0.0246 | SARS-CoV-2 NSP7 = 0.0424 | SARS-CoV-2 NSP8 = 0.00391 | SARS-CoV-2 NSP9 = 0.00236 | SARS-CoV-2 ORF10 = 0.024 | SARS-CoV-2 ORF3A 0.0782 | SARS-CoV-2 ORF3B 0.00976 | SARS-CoV-2 ORF6 = 0.0196 | SARS-CoV-2 ORF7A 0.035 | SARS-CoV-2 ORF7B 0.0256 | SARS-CoV-2 ORF8 = 0.0765 | SARS-CoV-2 ORF9B 0.0413 | [1] 0.083 | SARS-CoV-2 S 0.0795

B4: HRASLS5, Q96KN8 (protein)
chain: MGLSPGAEGEYALRLPRIPPPLPKPASRTASTGPKDQPPALRRSAVPHSGLNSISPLELEESVGFAALVQLPAKQPPPGTLEQGRSIQQGEKAVVSLETTPSQKADWSSIPKPENEGKLIKQAAEGKPRPRPGDLIEIFRIGYEHWAIYVEDDCVVHLAPPSEEFEVGSITSIFSNRAVVKYSRLEDVLHGCSWKVNNKLDGTYLPLPVDKIIQRTKKMVNKIVQYSLIEGNCEHFVNGLRYGVPRSQQVEHALMEGAKAAGAVISAVVDSIKPKPITA
inactive: SARS-CoV-2 E -0.0476 | SARS-CoV-2 M -0.0632 | SARS-CoV-2 N 0.0205 | SARS-CoV-2 NSP1 = 0.0357 | SARS-CoV-2 NSP10 = 0.0123 | SARS-CoV-2 NSP12 = -0.0576 | SARS-CoV-2 NSP13 = -0.0286 | SARS-CoV-2 NSP14 = 0.0759 | SARS-CoV-2 NSP16 = -0.0215 | SARS-CoV-2 NSP2 = -0.203 | SARS-CoV-2 NSP4 = 0.0425 | SARS-CoV-2 NSP5 = 0.027 | SARS-CoV-2 NSP6 = -0.0344 | SARS-CoV-2 NSP7 = -0.0377 | SARS-CoV-2 NSP8 = -0.0046 | SARS-CoV-2 NSP9 = 0.0898 | SARS-CoV-2 ORF10 = 0.0443 | SARS-CoV-2 ORF3A -0.0501 | SARS-CoV-2 ORF3B 0.0509 | SARS-CoV-2 ORF6 = 0.0332 | SARS-CoV-2 ORF7A -0.171 | SARS-CoV-2 ORF7B 0.0286 | SARS-CoV-2 ORF8 = 0.0632 | SARS-CoV-2 ORF9B -0.0358 | [1] 0.0524 | SARS-CoV-2 S 0.0376
